This is an account of results in patent publication US20200362031A1 (BIO TECHNE, published 2020).

The assay deals with T1, Recombinant human VSIG3 Fc Chimera (human).
T1 construct: also called rhVSIG3; rhVSIG-3
T1 chain: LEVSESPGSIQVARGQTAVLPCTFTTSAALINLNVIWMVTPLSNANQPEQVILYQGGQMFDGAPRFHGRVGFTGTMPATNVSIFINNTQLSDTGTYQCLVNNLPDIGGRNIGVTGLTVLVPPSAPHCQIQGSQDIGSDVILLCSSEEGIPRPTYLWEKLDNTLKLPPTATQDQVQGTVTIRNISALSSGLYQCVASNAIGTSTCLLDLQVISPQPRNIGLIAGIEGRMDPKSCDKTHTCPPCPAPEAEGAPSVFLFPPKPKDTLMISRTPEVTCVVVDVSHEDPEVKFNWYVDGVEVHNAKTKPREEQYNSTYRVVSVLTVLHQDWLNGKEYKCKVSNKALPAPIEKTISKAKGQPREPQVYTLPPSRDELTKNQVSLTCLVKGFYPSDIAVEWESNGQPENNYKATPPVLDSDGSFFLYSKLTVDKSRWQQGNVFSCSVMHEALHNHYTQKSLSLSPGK
Put plainly: AVEXIS: VSIG3-Fc bait on protein A plate, VISTA-COMP-AlkPhos prey, alkaline phosphatase read at 650 nm. As to the method:
The avidity-based extracellular interaction screen (AVEXIS) was modified to screen for antibodies against VSIG3 that block the interaction between recombinant human VSIG3 (rhVSIG3) and VISTA. […] After capturing VSIG3-Fc bait on protein A coated plates, wells were incubated individually with a monoclonal antibody against VSIG3. Conditioned media containing the oligomeric prey protein fused to the COMP helical oligomer and alkaline phosphatase was then added, incubated, and washed, and the interaction was quantitatively measured by detection of alkaline phosphatase activity using the BLUEPHOS reagent (KPL/Sera Care, Milford, Mass.).
Rat and mouse monoclonal antibodies recognizing human VSIG3 were generated and tested for their ability to block a VSIG3-VISTA interaction. AVEXIS assay screening for antibody blockade of the VSIG3-VISTA interaction was conducted as described above. Briefly, the bait protein, VSIG3-Fc, was captured on Protein A coated plates and blocked without or with antibodies at 10 μg/mL. […] The prey protein, multimeric VISTA with alkaline phosphatase, was incubated in the presence of anti-VSIG3 antibodies. After washing, the interaction between VSIG3 and VISTA was measured using alkaline phosphatase substrate and quantified by measuring the absorbance at 650 nm.

B1: VISTA([…])-COMP-AlkPhos-Flag/His (other)
chain: [about 150 residues not written out]GSENLYFQGNSGGGSGGGTGGGDLAPQMLRELQETNAALQDVRELLRHRVKEITFLKNTVMECDACGLDRNLPPLAPLGPIIPVEEENPDFWNREAAEALGAAKKLQPAQTAAKNLIIFLGDGMGVSTVTAARILKGQKKDKLGPEIPLAMDRFPYVALSKTYNVDKHVPDSGATATAYLCGVKGNFQTIGLSAAARFNQCNTTRGNEVISVMNRAKKAGKSVGVVTTTRVQHASPAGTYAHTVNRNWYSDADVPASARQEGCQDIATQLISNMDIDVILGGGRKYMFRMGTPDPEYPDDYSQGGTRLDGKNLVQEWLAKRQGARYVWNRTELMQASLDPSVTHLMGLFEPGDMKYEIHRDSTLDPSLMEMTEAALRLLSRNPRGFFLFVEGGRIDHGHHESRAYRALTETIMFDDAIERAGQLTSEEDTLSLVTADHSHVFSFGGYPLRGSSIFGLAPGKARDRKAYTVLLYGNGPGYVLKDGARPDVTESESGSPEYRQQSAVPLDEETHAGEDVAVFARGPQAHLVHGVQEQTFIAHVMAFAACLEPYTACDLAPPAGTTDDYKDDDDKHHHHHH
notes: AVEXIS prey, used as conditioned medium; The entry starts at residue 1 (leader included); no cleavage site is stated; also called multimeric VISTA with alkaline phosphatase; VISTA ectodomain (ECD) coupled to COMP helix and alkaline phosphatase
Regarding B1, the binding result is “binds”.
